Our source for the survival values is PubChem BioAssay AID463173 (ICCB-Longwood Screening Facility, Harvard Medical School, 2010).

Among all 52,000 compounds or so, about 4,300 (8.3%) were called active. Cut-off read from the data, not from the text of the source: active = survival mostly below about 52% (no sharp cut-off); inactive = mostly above about 56%. The list shows a part of the results.

The test concerns DeltatarO mutant. Kind of test: S. aureus survival, RN4220 and DeltatarO strains – OD600, teichoic acid synthesis inhibitors, primary screen (AID 463173). Particulars: S. aureus RN4220 wild type/DeltatarO growth, OD600, 18 h, hits give low values, screened at 18.75 µg/mL (by protocol).
On to `CC(=O)c1cccc(NC(=O)c2nc(-c3ccccc3)n(-c3cccc(Cl)c3)n2)c1`, for which the survival was inactive: 68%. The same measure for `COc1ccc(-c2nn3c(=O)cc(CN4CCN(C(=O)c5ccc(OC)c(OC)c5)CC4)nc3s2)cc1`: inactive: 98%; for `CCOc1ccccc1CNc1ccc2cc(S(=O)(=O)N3CCC(C)CC3)ccc2n1`: inactive: 70%.

For `CCc1ccc2[nH]c(=O)c(CN(CCCN3CCOCC3)C(=S)NC)cc2c1`, the survival is inactive: 88%. The same measure for `COc1ccc(-c2noc(N(c3nc(-c4ccc(OC)c(OC)c4)no3)c3ccccc3OC)n2)cc1OC`: inactive: 115%.

For the compound `CC(C)(C)c1ccc(C(=O)Nc2ccc3c(c2)CCCN3C(=O)c2cccs2)cc1`, the survival was inactive: 80%. For `Cc1ccc(C)c(N2CCN(C(=O)NC3CCCCC3)CC2)c1`, the survival is inactive: 91%. On to `CCOc1ccccc1NC(=O)c1ccc2c(Cl)c3c(nc2c1)CCC3`, for which the survival was inactive: 82%. Consider `CC(=O)c1cc(-c2ccccc2)n(CCC(=O)NCc2ccc(C)cc2)c1C`, for which the survival was inactive: 76%.

As for `CC(C(=O)O)c1nn(C)c(=O)c2ccccc12` (stereo not given), the survival was inactive: 92%.

`CCOC(=O)c1c(C)n(C2CCCCC2)c2ccc(OCC(N)=O)cc12`: the survival was inactive: 69%. The same measure for `CCOc1ccccc1Nc1sc(C(=O)c2ccccc2)c(N)c1C(=O)Nc1ccccc1`: inactive: 102%; for `CCOc1ccc(-n2ccnc2SCC(=O)Nc2nc3ccc(C)cc3s2)cc1`: inactive: 67%; for `Cc1cc(-c2ccc(C)c(S(=O)(=O)NC3CCCCC3)c2)on1`: inactive: 83%.

`Cc1nn(-c2ccccc2)c2c1N(CC(=O)N1CCN(c3ccc(F)cc3)CC1)C(=O)CS2`: the survival is inactive: 81%.

On to `O=C(Cn1c(=O)n(Cc2cccs2)c(=O)c2cccnc21)Nc1ccc(F)cc1`, for which the survival was inactive: 87%. In the case of `COc1ccc(-c2ccc(SCC(=O)N3CCC(C)CC3)nn2)cc1`, the survival is inactive: 94%. On to `COc1cccc2cc(C(=O)Nc3ccc(F)c(F)c3)c(=O)oc12`, for which the survival is inactive: 77%. For `COc1ccc(CNC(=O)c2cc3sccc3n2CC(=O)c2ccccc2)cc1`, the survival is inactive: 80%. For the compound `Cc1ccccc1S(=O)(=O)Cc1ccc(C(=O)NC2CCC(C)CC2)o1` (stereo not given), the survival was inactive: 80%. As for `CCOc1ccc(NC(=O)Cn2c(=O)n(-c3ccccc3)c(=O)c3ccc(C(=O)NCc4ccc5c(c4)OCO5)cc32)cc1`, the survival is inactive: 107%. Consider `Cc1ccc(CNC(=O)C2CCN(S(=O)(=O)c3ccc4[nH]c(=O)ccc4c3)CC2)cc1`, for which the survival is inactive: 101%.

On to `Cc1nc2nc[nH]n2c(=O)c1CCC(=O)Nc1ccc(F)cc1`, for which the survival is inactive: 99%. As to `CCc1nc2cccnc2n1CCNC(=O)NC1CCCCC1`, the survival was inactive: 103%. As for `CC(C)CCN1C(=O)c2ccccc2CC1(C)C(=O)NC1CCC(C)CC1` (stereo not given), the survival is inactive: 100%.
